Measured values from the supplement of paper PMC8728848.
This is one part of the list.

Assays:
Assay in all cases: glycan array binding signal (z-score within array); higher = stronger binding
Conditions in all cases: glycan notation: IUPAC condensed, linker removed
[1] = molecular target: Neu5Ac(a2-3)Gal(b1-3)GlcNAc(b1-2)Man(a1-3)[GlcNAc(b1-4)][Neu5Ac(a2-3)Gal(b1-3)GlcNAc(b1-2)Man(a1-6)]Man(b1-4)GlcNAc(b1-4)GlcNAc
Outline: (§1)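 The Consortium for Functional Glycomics database supplied 3228 glycan arrays, of which those lacking an available protein sequence were dropped. The binding signal, a within-array Z-score, was averaged across arrays of the same protein sequence and across linkers. Negative scores can be read as non-binding.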

[2] = molecular target: Neu5Ac(a2-3)Gal(b1-3)GlcNAc(b1-2)Man(a1-3)[Neu5Ac(a2-3)Gal(b1-3)GlcNAc(b1-2)Man(a1-6)]Man(b1-4)GlcNAc(b1-4)GlcNAc
Outline: as §1

[3] = molecular target: Neu5Ac(a2-3)Gal(b1-3)GlcNAc(b1-3)Gal(b1-3)GlcNAc
Outline: as §1

[4] = molecular target: Neu5Ac(a2-3)Gal(b1-3)GlcNAc(b1-3)Gal(b1-4)GlcNAc
Outline: as §1

[5] = molecular target: Neu5Ac(a2-3)Gal(b1-3)GlcNAc(b1-3)GalNAc
Outline: as §1

[6] = molecular target: Neu5Ac(a2-3)Gal(b1-3)GlcNAc(b1-4)Gal(b1-4)Glc
Outline: as §1

[7] = molecular target: Neu5Ac(a2-3)Gal(b1-3)GlcNAc(b1-6)GalNAc
Outline: as §1

[8] = molecular target: Neu5Ac(a2-3)Gal(b1-3)GlcNAc6S
Outline: as §1

[9] = molecular target: Neu5Ac(a2-3)Gal(b1-3)[Fuc(a1-4)]GlcNAc
Outline: as §1

[10] = molecular target: Neu5Ac(a2-3)Gal(b1-3)[Fuc(a1-4)]GlcNAc(b1-3)Gal(b1-3)[Fuc(a1-4)]GlcNAc
Outline: as §1

[11] = molecular target: Neu5Ac(a2-3)Gal(b1-3)[Fuc(a1-4)]GlcNAc(b1-3)Gal(b1-4)[Fuc(a1-3)]GlcNAc
Outline: as §1

[12] = molecular target: Neu5Ac(a2-3)Gal(b1-3)[GlcNAc(b1-6)]GalNAc
Outline: as §1

[13] = molecular target: Neu5Ac(a2-3)Gal(b1-3)[Neu5Ac(a2-6)]GalNAc
Outline: as §1

[14] = molecular target: Neu5Ac(a2-3)Gal(b1-3)[Neu5Ac(a2-6)]GlcNAc(b1-3)[Fuc(a1-3)[Gal(b1-4)]GlcNAc(b1-6)]Gal(b1-4)Glc
Outline: as §1

[15] = molecular target: Neu5Ac(a2-3)Gal(b1-3)]Neu5Ac(a2-3)Gal(b1-4)]GlcNAc
Outline: as §1

Neu5Ac(a2-3)Gal(b1-4)Glc = molecular target: Neu5Ac(a2-3)Gal(b1-4)Glc
Outline: as §1

[16] = molecular target: Neu5Ac(a2-3)Gal(b1-4)GlcNAc
Outline: as §1

[17] = molecular target: Neu5Ac(a2-3)Gal(b1-4)GlcNAc(b1-2)Man
Outline: as §1

[18] = molecular target: Neu5Ac(a2-3)Gal(b1-4)GlcNAc(b1-2)Man(a1-3)[GlcNAc(b1-4)][Neu5Ac(a2-3)Gal(b1-4)GlcNAc(b1-2)Man(a1-6)]Man(b1-4)GlcNAc(b1-4)GlcNAc
Outline: as §1

[19] = molecular target: Neu5Ac(a2-3)Gal(b1-4)GlcNAc(b1-2)Man(a1-3)[Neu5Ac(a2-3)Gal(b1-4)GlcNAc(b1-2)Man(a1-6)]Man(b1-4)GlcNAc(b1-4)GlcNAc
Outline: as §1

[20] = molecular target: Neu5Ac(a2-3)Gal(b1-4)GlcNAc(b1-2)Man(a1-3)[Neu5Ac(a2-3)Gal(b1-4)GlcNAc(b1-2)Man(a1-6)]Man(b1-4)GlcNAc(b1-4)[Fuc(a1-6)]GlcNAc
Outline: as §1

[21] = molecular target: Neu5Ac(a2-3)Gal(b1-4)GlcNAc(b1-2)Man(a1-3)[Neu5Ac(a2-6)Gal(b1-4)GlcNAc(b1-2)Man(a1-6)]Man(b1-4)GlcNAc(b1-4)GlcNAc
Outline: as §1

[22] = molecular target: Neu5Ac(a2-3)Gal(b1-4)GlcNAc(b1-2)[Neu5Ac(a2-3)Gal(b1-4)GlcNAc(b1-4)]Man(a1-3)[GlcNAc(b1-4)][Neu5Ac(a2-3)Gal(b1-4)GlcNAc(b1-2)[Neu5Ac(a2-3)Gal(b1-4)GlcNAc(b1-6)]Man(a1-6)]Man(b1-4)GlcNAc(b1-4)GlcNAc
Outline: as §1

[23] = molecular target: Neu5Ac(a2-3)Gal(b1-4)GlcNAc(b1-2)[Neu5Ac(a2-3)Gal(b1-4)GlcNAc(b1-4)]Man(a1-3)[GlcNAc(b1-4)][Neu5Ac(a2-3)Gal(b1-4)GlcNAc(b1-4)Man(a1-6)]Man(b1-4)GlcNAc(b1-4)GlcNAc
Outline: as §1

[24] = molecular target: Neu5Ac(a2-3)Gal(b1-4)GlcNAc(b1-2)[Neu5Ac(a2-3)Gal(b1-4)GlcNAc(b1-6)]Man(a1-6)[Neu5Ac(a2-3)Gal(b1-4)GlcNAc(b1-2)Man(a1-3)]Man(b1-4)GlcNAc(b1-4)GlcNAc
Outline: as §1

[25] = molecular target: Neu5Ac(a2-3)Gal(b1-4)GlcNAc(b1-2)[Neu5Ac(a2-3)Gal(b1-4)GlcNAc(b1-6)]Man(a1-6)[Neu5Ac(a2-3)Gal(b1-4)GlcNAc(b1-2)Man(a1-3)][GlcNAc(b1-4)]Man(b1-4)GlcNAc(b1-4)GlcNAc
Outline: as §1

[26] = molecular target: Neu5Ac(a2-3)Gal(b1-4)GlcNAc(b1-3)Gal
Outline: as §1

[27] = molecular target: Neu5Ac(a2-3)Gal(b1-4)GlcNAc(b1-3)Gal(b1-3)GlcNAc
Outline: as §1

[28] = molecular target: Neu5Ac(a2-3)Gal(b1-4)GlcNAc(b1-3)Gal(b1-4)GlcNAc
Outline: as §1

[29] = molecular target: Neu5Ac(a2-3)Gal(b1-4)GlcNAc(b1-3)Gal(b1-4)GlcNAc(b1-2)Man(a1-3)[Neu5Ac(a2-3)Gal(b1-4)GlcNAc(b1-3)Gal(b1-4)GlcNAc(b1-2)Man(a1-6)]Man(b1-4)GlcNAc(b1-4)GlcNAc
Outline: as §1

[30] = molecular target: Neu5Ac(a2-3)Gal(b1-4)GlcNAc(b1-3)Gal(b1-4)GlcNAc(b1-3)Gal(b1-4)GlcNAc
Outline: as §1

[31] = molecular target: Neu5Ac(a2-3)Gal(b1-4)GlcNAc(b1-3)Gal(b1-4)GlcNAc(b1-3)Gal(b1-4)GlcNAc(b1-2)Man(a1-3)[Neu5Ac(a2-3)Gal(b1-4)GlcNAc(b1-3)Gal(b1-4)GlcNAc(b1-3)Gal(b1-4)GlcNAc(b1-2)Man(a1-6)]GalNAc
Outline: as §1

[32] = molecular target: Neu5Ac(a2-3)Gal(b1-4)GlcNAc(b1-3)Gal(b1-4)GlcNAc(b1-3)GalNAc
Outline: as §1

[33] = molecular target: Neu5Ac(a2-3)Gal(b1-4)GlcNAc(b1-3)Gal(b1-4)GlcNAc(b1-3)[Neu5Ac(a2-3)Gal(b1-4)GlcNAc(b1-3)Gal(b1-4)GlcNAc(b1-6)]GalNAc
Outline: as §1

[34] = molecular target: Neu5Ac(a2-3)Gal(b1-4)GlcNAc(b1-3)Gal(b1-4)GlcNAc(b1-6)[Gal(b1-3)]GalNAc
Outline: as §1

[35] = molecular target: Neu5Ac(a2-3)Gal(b1-4)GlcNAc(b1-3)Gal(b1-4)[Fuc(a1-3)]GlcNAc
Outline: as §1

[36] = molecular target: Neu5Ac(a2-3)Gal(b1-4)GlcNAc(b1-3)GalNAc
Outline: as §1

[37] = molecular target: Neu5Ac(a2-3)Gal(b1-4)GlcNAc(b1-3)[Neu5Ac(a2-3)Gal(b1-4)GlcNAc(b1-6)]GalNAc
Outline: as §1

B1: GSL-I-B4 (Griffonia simplicifolia) (protein)
chain: NFWSDVEDSIIFQGDANTTAGTLQLCKTNQYGTPLQWSAGRALYSDPVQLWDNKTESVASFYTEFTFFLKITGNGPADGLAFFLAPPDSDVKDAGEYLGLFNKSTATQPSKNQVVAVEFDTWTNPNFPEPSYRHIGINVNSIVSVATKRWEDSDIFSGKIATARISYDGSAEILTVVLSYPDGSDYILSHSVDMRQNLPESVRVGISASTGNNQFLTVYILSWRFSSNLQSTSVKAAMEPEITRTVV
glycan array binding signal (z-score) [1]: -0.151 | glycan array binding signal (z-score) [2]: -0.115 | glycan array binding signal (z-score) [3]: -0.169 | glycan array binding signal (z-score) [4]: -0.14 | glycan array binding signal (z-score) [5]: -0.117 | glycan array binding signal (z-score) [6]: -0.173 | glycan array binding signal (z-score) [7]: -0.198 | glycan array binding signal (z-score) [8]: -0.068 | glycan array binding signal (z-score) [9]: -0.207 | glycan array binding signal (z-score) [10]: -0.149 | glycan array binding signal (z-score) [11]: -0.102 | glycan array binding signal (z-score) [12]: -0.18 | glycan array binding signal (z-score) [13]: -0.166 | glycan array binding signal (z-score) [14]: -0.208 | glycan array binding signal (z-score) [15]: -0.222 | glycan array binding signal (z-score) (Neu5Ac(a2-3)Gal(b1-4)Glc): -0.173 | glycan array binding signal (z-score) [16]: -0.189 | glycan array binding signal (z-score) [17]: -0.197 | glycan array binding signal (z-score) [18]: -0.216 | glycan array binding signal (z-score) [19]: -0.131 | glycan array binding signal (z-score) [20]: -0.214 | glycan array binding signal (z-score) [21]: -0.208 | glycan array binding signal (z-score) [22]: -0.163 | glycan array binding signal (z-score) [23]: -0.152 | glycan array binding signal (z-score) [24]: -0.164 | glycan array binding signal (z-score) [25]: -0.24 | glycan array binding signal (z-score) [26]: -0.112 | glycan array binding signal (z-score) [27]: -0.21 | glycan array binding signal (z-score) [28]: -0.204 | glycan array binding signal (z-score) [29]: 0.149 | glycan array binding signal (z-score) [30]: -0.2 | glycan array binding signal (z-score) [31]: 0.146 | glycan array binding signal (z-score) [32]: -0.238 | glycan array binding signal (z-score) [33]: -0.167 | glycan array binding signal (z-score) [34]: -0.059 | glycan array binding signal (z-score) [35]: -0.199 | glycan array binding signal (z-score) [36]: -0.228 | glycan array binding signal (z-score) [37]: -0.164
